Reference: the RNAGym collection of RNA variant scans (doi:10.1093/nar/gkz1192)
Read counts are not given, so values of variants with three or more changes are uncertain.

B1: CPEB3 Ribozyme (parent)
chain: UAACAGGGGGCCACAGCAGAAGCGUUCACGUCGCAGCCCCUGUCAGAUUCUGGUGAAUCUGCGAAUUCUGCUGUAUAUCUC

Variants of: B1
Assay: self-cleavage, relative activity (ratio to wild type); higher = more cleavage; in vitro, sequencing
Procedure, shortened: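 Relative activity was defined as the cleaved/total read fraction for a variant divided by the same fraction for the unmutated ribozyme. CPEB3 self-cleaving ribozyme libraries were made by rounds of error-prone PCR, barcoded, and transcribed in vitro with T7 RNA polymerase for 5 hours at 37°C, and cleavage ran through transcription plus a 15 min DNase I step before EDTA. Illumina sequencing of template-switched reverse transcripts gave the reads, and DNA sequencing mapped the barcodes. Averages come from three batches, using variants with at least 5 reads.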

Variant | self-cleavage
A3U A20G U41C | 1.28
A3U A20G U43A | 0.77
A3U A20G U51C | 0.83
A3U A20G U60A G63A U69C U78C | 0.25
A3U A20G U72A U78C | 1.05
A3U A20U C23G U26A | 0.11
A3U A20U U25C U41A A45U G53A U66C | 0.54
A3U A20U U31A A35G A77G | 0.52
A3U A20U U41A | 0.18
A3U A20U U41C U48A U72A | 0.08
A3U A20U U41C U49C A64U | 0.23
A3U A21C C59U U69A | 0.05
A3U A21C G52A U69G U78A | 0.06
A3U A21G A28G U43C U66C A77G | 0.14
A3U A21G A28U U43C | 0.19
A3U A21G A56U A64G | 0.18
A3U A21G C32G A35G | 0.11
A3U A21G C37A | 0.12
A3U A21G C40U U69A | 0.13
A3U A21G U25A U49C U51C U69C | 0.07
A3U A21G U26C U51A | 0.56
A3U A21G U41G C62G U76C | 0.16
A3U A21G U54C | 0.93
A3U A21U A56U U60A | 0.4

Variant | self-cleavage
A3U A21U C23U | 0.34
A3U A21U U26C U43A U48C | 0.09
A3U A21U U49A | 0.44
A3U A21U U49C U54A | 0.29
A3U A28C U41A A47G U48C U51G | 0.33
A3U A28C U51G U78A | 0.74
A3U A28G A35G U58A U69A | 0.35
A3U A28G A47G U49C | 0.11
A3U A28G A47G U54C A75U U78A | 0.27
A3U A28G A56U U72A | 0.22
A3U A28G G30U U41C | 0.15
A3U A28G U31A A64G U67C U78C | 0.05
A3U A28G U31A C40U U72C | 0.2
A3U A28G U31C U41C A56G C59A U67A | 0.1
A3U A28G U41C U60C | 0.16
A3U A28G U67C | 0.13
A3U A28G U69C U72A | 0.14
A3U A28G U80C | 0.85
A3U A28U G30A U69A | 0.11
A3U A28U G30C U74A | 0.21
A3U A28U U41A U43C U48C U60C A64G | 0.15
A3U A28U U51G | 1.05
A3U A28U U54A U80C | 0.91
A3U A28U U72C | 1.15

Variant | self-cleavage
A3U A35C C40U G63C | 0.19
A3U A35G A45G | 1.2
A3U A35G A56U | 1.15
A3U A35G A65G | 1.12
A3U A35G C38U U69C A75G | 1
A3U A35G U41C A56U | 1.22
A3U A35G U41C U69A | 0.9
A3U A35G U48A G63U | 1.14
A3U A35G U51A U69G | 1.13
A3U A35G U60A U69C | 0.66
A3U A35G U69C | 1.13
A3U A35U A56U U80C | 0.46
A3U A35U A64G | 0.66
A3U A35U U54C | 0.83
A3U A35U U80A | 0
A3U A45G U49C G55A U58A | 0.04
A3U A45G U49C U69C | 0.31
A3U A45G U51C A57G U60A U76A | 0.36
A3U A45G U67C | 0.49
A3U A45G U78G | 1.08
A3U A45U A47C U60C | 0.08
A3U A45U U48A | 0.17
A3U A45U U58C A77U U80A | 0.19
A3U A45U U60C | 0.29

Variant | self-cleavage
A3U A47G U51C | 1.04
A3U A47G U54C U60A U74A A75G | 0.35
A3U A47G U54C U67C U78C | 0.2
A3U A47G U80C | 1.22
A3U A47U C50A U60C A65U | 0.22
A3U A47U U80C | 0.38
A3U A56G A57G U67A A77U | 0.09
A3U A56G A65U | 0.24
A3U A56G C79U | 1.19
A3U A57G A64U | 0.29
A3U A57G C62U | 0.1
A3U A57G U60C | 0.41
A3U A57G U69A | 0.67
A3U A57G U72A | 0.71
A3U A65U U80C | 0.52
A3U A75G U80C | 0.65
A3U C4A U41A A45U | 0.44
A3U C4G A20G U26C A56G U67C | 0.22
A3U C4U A5G U26C G73C | 0.71
A3U C4U A20G C23U U60C | 0.21
A3U C4U U60A | 0.84
A3U C11A A35U A56G | 0.38
A3U C11A U43C U67G U76C | 0.05
A3U C11G A13G U41G | 0.07

Variant | self-cleavage
A3U C11G A18C A35U G61C | 0.06
A3U C11G A18C U25C | 0.34
A3U C11G A35U A47U A57U A75U | 0.32
A3U C11G A47U A57U | 0.18
A3U C11G U41C U78C | 0.58
A3U C11U A28G | 0.21
A3U C11U G33A A65G U78C | 0.05
A3U C12A A57C | 0.46
A3U C12A U41A A45U A56U A77G | 0.07
A3U C12G A13U U26C U41C | 0.57
A3U C12G U43A U51A A56G C81A | 0.52
A3U C12U A13U G24C U43C | 0.38
A3U C12U A20G C32G A77U | 0.07
A3U C12U C37G U43A A47G U51C | 0.28
A3U C14A U72C | 1.24
A3U C14U U26C U54C U67C | 0.04
A3U C17A U31C C62U | 0.32
A3U C17U C23U A28U U31A | 0.3
A3U C17U C38A | 0.59
A3U C17U U25C U48C A64G U69A | 0.15
A3U C23U A35G U48C U54C A77G | 0.61
A3U C23U A57G U78C | 0.09
A3U C27A U31C C38A G42A A77U | 0.22
A3U C29A U41A U58C | 0.08

Variant | self-cleavage
A3U C29G U41G U49C | 0.11
A3U C29G U43C G70C | 0.14
A3U C29G U43C U69C | 0.21
A3U C29U G52A A64G U67C U78C | 0.13
A3U C29U U67C U78C | 0.11
A3U C32A U43C U76C | 0.07
A3U C32A U69A U72A | 0.08
A3U C32U U60C U69C | 0.12
A3U C32U U66C U74C | 0.18
A3U C34A A35U U60C | 0.14
A3U C34G C38A C39U | 0.44
A3U C34G U41C U66G | 0.08
A3U C34G U43C A64U U72C | 0.12
A3U C37A U80A | 0.16
A3U C38A A57G U60C | 0.11
A3U C38A U49C | 0.22
A3U C38G A56U U58C A77G | 0.13
A3U C39U A64U U69C U72A | 0.07
A3U C40A A75U U78C | 0.15
A3U C40U A65G A77G | 0.23
A3U C50A C62G U80C | 0.27
A3U C50U A65G | 0.5
A3U C50U U51G U74C | 0.76
A3U C59U U60A | 0.49

Variant | self-cleavage
A3U C62U A65G A75G C81U | 0.24
A3U G6A A21G U43A A45G | 0.07
A3U G6A A21U U25C U41A U51C | 0.07
A3U G6A A28G A64U | 0.08
A3U G6A C37U U51A U72G | 0.11
A3U G6A U25C A45G | 0.39
A3U G6A U48A | 0.46
A3U G6C A15C A28U | 0.63
A3U G6U A15G U26A U48G U54C | 0.31
A3U G6U G36U U80C | 0.09
A3U G7A A15U C62G U72C | 0.06
A3U G7A A56G | 0.32
A3U G7A U25C A64G A65G A75G | 0.06
A3U G7C A18G U54C | 0.13
A3U G7C A20U C39U C71U U78C | 0.05
A3U G7C G19U U72A | 0.3
A3U G7U U31C | 0.59
A3U G8A A13U C34A U66G | 0.07
A3U G8A A13U U48C A57G U66C G73A | 0.05
A3U G8C U48C U51C U54C G73A U80C | 0.07
A3U G8U A15G U43G U49A | 0.34
A3U G8U A15U U43C A64U | 0.21
A3U G8U C17U U43A | 0.37
